# In PubChem BioAssay AID1948 (National Center for Advancing Translational Sciences (NCATS), 2009):
# Out of some 110,000 compounds screened, about 20 (0.02%) were called active. Inconclusive results, whose numbers are uncertain, are shown with a selection of clear calls. Calls follow the shape of the dose curve; as a rule, active = well fitted activation curve with a large enough effect; inconclusive = small, poorly fitted or top-dose-only effect; inactive = no such curve, though single readings can be large or run the other way. Potencies of inconclusive entries are left out as doubtful fits.
# Test: qHTS Assay for Compounds that Induce Erasure of Genomic Imprints;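 as to activity change, positive = activation: 0% = negative control wells on the plate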
# Details: mouse ES Peg3-LacZ reporter, beta-gal luminescence, 40 h; activity change, positive = activation: at 10.9 µM (top of the series) unless noted
# In short: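 Imprint erasure is scored as LacZ activity from the silenced maternal Peg3 allele in feeder-free female ES cells cultured 40 h with LIF. Luminescence is normalized to in-plate negative controls and fitted to the Hill equation.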
# Potency is read from the fitted curve at half-maximal effect; tags tell the direction and shape of the fitted curve.
SMILES,"activity change, positive = activation",Potency
Cc1cc(N2CCC(C(=O)NCCC(C)C)CC2)n2nc(C)c(-c3ccc(Cl)cc3)c2n1,inconclusive: 30.2% [activator],–
CC(C)(C)NC(=O)CSc1nnc(-c2ccco2)n1Cc1ccco1,–,"inconclusive [activator, single point]"
CCCc1cc(=O)n2[nH]c(NCc3c(Cl)cccc3Cl)nc2n1,–,"inconclusive [activator, single point]"
COc1ncc2nc(-c3ccc(Cl)cc3)c(=O)n(CCC#N)c2n1,–,"inconclusive [activator, single point]"
COc1ccc(NC2CC(=O)N(c3ccccc3)C2=O)cc1 (centres undefined),–,"inconclusive [activator, single point]"
CN(C(=O)CSc1ncccc1C(=O)O)c1ccccc1,–,"inconclusive [activator, single point]"
Cc1ccc2oc(=O)n(CCNC(=O)Nc3ccccc3Cl)c2c1,inconclusive: 32.4% [activator],–
COCCNC(=O)CCCn1c(SCC(=O)Nc2cccc(C)c2)nc2c(sc3ccccc32)c1=O,inconclusive: 38.5% [activator],–
O=C(NCc1ccccc1)C1CCC(CNS(=O)(=O)c2ccc(Br)s2)CC1 (centres undefined),inconclusive: 34.5% [activator],–
CCn1c(CC(=O)Nc2ccccc2)nnc1SCC(=O)Nc1ccccc1C(=O)OC,–,"inconclusive [activator, single point]"
O=CN1CCN(C2CC(=O)N(c3ccc4c(c3)OCO4)C2=O)CC1 (centres undefined),–,"inconclusive [activator, single point]"
O=C(NCC1(c2ccccc2)CCCC1)C(=O)Nc1cccc(C(F)(F)F)c1,inconclusive: 84.3% [activator],–
O=C(COc1ccc(Cl)cc1)Nc1ccccc1C(=O)NCc1ccco1,–,"inconclusive [activator, partial curve]"
c1ccc(CC2CCN(c3nc4ccccc4n4nnnc34)CC2)cc1,–,"inconclusive [activator, single point]"
O=C(CN(C(=O)c1cc2c(s1)CCC2)C1CCCC1)NCc1cccs1,inactive: -13.5% [at 60.7 µM],–
CCOc1ccc(CCNC(=O)C2=C(C)C(=O)OC23CCC(C)CC3)cc1OCC (centres undefined),inactive: 7.79%,–
COc1ccc(CNc2ccnc(-c3ccc(N(C)C)cc3)n2)c(OC)c1,–,"inconclusive [activator, full curve, poor fit]"
CC(=O)Nc1ccc(N/C=C/C(=O)c2ccc(C)o2)cc1,–,"inconclusive [activator, single point]"
CC(C)CCNC(=O)C(=O)Nc1c2c(nn1-c1ccccc1)CS(=O)(=O)C2,inconclusive: 57.2% [activator],–
CCN(CC)C(=O)c1cncc(C(=O)N(CC)CC)c1-c1ccccc1,–,"inconclusive [activator, single point]"
Cc1cccn2c(=O)c3cc(C(=O)N4CCN(C(=O)c5ccco5)CC4)n(C)c3nc12,inactive: -11.4% [at 60.7 µM],–
Cc1cnc(NC(=O)CSc2nnc(Cc3ccccc3)n2C)s1,–,"inconclusive [activator, single point]"

SMILES,"activity change, positive = activation",Potency
COc1c(C)cc(Br)cc1C(=O)Nc1ccc(N2CCN(S(C)(=O)=O)CC2)cc1,–,"inconclusive [activator, single point]"
COc1ccc(NC(=O)Nc2cccs2)cc1OC,inactive: -15.7% [at 60.7 µM],–
Cn1c(=O)c(-c2ccc(F)cc2)nc2cnc(OCc3ccccc3)nc21,–,"inconclusive [activator, single point]"
OCc1nc2ccccc2n1CC(O)Cn1ccc2ccccc21 (centres undefined),inactive: -7.62% [at 60.7 µM],–
Oc1ccc(Cl)cc1Cc1cc(Cl)cc(Cc2cc(Cl)ccc2O)c1O,inactive: -5.48%,–
COc1ccc(S(=O)(=O)NCCc2sc3nc(-c4ccc(C)cc4)nn3c2C)cc1C,inconclusive: 68.8% [activator],–
Cc1cc(C)cc(-n2c(SCC(=O)Nc3cccc(F)c3)nc3c([nH]c4ccccc43)c2=O)c1,inconclusive: 30.3% [activator],–
COc1cccc(Cn2c(=O)cnc3cnc(OCc4ccccc4)nc32)c1,inactive: 1.39% [at 60.7 µM],–
Cc1noc(-c2ccc(-c3noc(-c4ccc([N+](=O)[O-])c(C)c4)n3)cc2)n1,inconclusive: 40.3% [activator],–
COc1ccc(CCN(C)CCCC(C#N)(c2cc(OC)c(OC)c(OC)c2)C(C)C)cc1OC (centres undefined),–,"inconclusive [activator, partial curve]"
Cc1cc(S(=O)(=O)NCCc2csc(-c3cccc(F)c3)n2)ccc1F,inconclusive: 31.6% [activator],–
CC(C)c1ccc(C(=O)CC2(O)C(=O)N(CCc3ccccc3)c3ccc(Cl)cc32)cc1 (centres undefined),inactive: -7.92%,–
Nn1c(SCc2csc(-c3ccccc3)n2)nnc1-c1cccs1,–,"inconclusive [activator, single point]"
CCn1c(COc2ccccc2)nnc1SCC(=O)Nc1ccc2c(c1)OCCO2,–,"inconclusive [activator, single point]"
COc1ccc(-c2nnc(NC(=O)c3ccc(S(=O)(=O)N4CCc5ccccc5C4)cc3)o2)cc1,inactive: -6.51% [at 60.7 µM],–
COc1ccc(Br)cc1S(=O)(=O)Nc1cc(-c2cn3ccccc3n2)ccc1C,inactive: -6.03%,–
COc1cccc(/C=C/c2nc(C#N)c(N3CCC(C(N)=O)CC3)o2)c1,inconclusive: 33.5% [activator],–
Nc1ccc(N2CCCCCC2)cc1,–,"inconclusive [activator, single point]"
COC(=O)C1CCN(S(=O)(=O)c2c(C)n(C)c(=O)n(C)c2=O)CC1,–,"inconclusive [activator, single point]"
O=C(c1ccc(Cl)cc1)N1CCN(CCc2ccncc2)CC1,inconclusive: 169% [activator],–
Cc1ccc(-c2c3c(=O)n(C)c(=O)n(C)c3c3n2-c2ccccc2NC3c2ccc(C)cc2O)cc1 (centres undefined),inconclusive: 62.4% [activator],–
CCn1c(CNC(=O)c2ccc(OC)cc2)nnc1SCC(=O)Nc1cc(C)ccc1C,inconclusive: 32.4% [activator],–
